From PubChem BioAssay AID1625 (Sanford-Burnham Center for Chemical Genomics, 2009)
Some of the results follow. The main result of the screen is listed elsewhere. These columns were measured beside it and carry no call. The list favours compounds with an active or inconclusive main result.

test: up-regulation of insulin promoter-GFP reporter – imaging, high-content screening, mouse beta cells (AID 1625); conditions: MIN6 insulin promoter-GFP reporter, measured here: cytotoxicity, nuclei count, at 5 µM;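 note: total cells summed across four imaged fields per well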

Row | Compound | cell count [cells]
1 | COc1cccc(NC(=O)Cc2nnc(SCC(=O)c3ccccc3)n2C)c1 | 471
2 | Cc1nc2c(oc3ccccc32)c(=O)o1 | 1150
3 | C=CCN1C(=O)/C(=C/C=C2/N(CC)c3ccc(S(=O)(=O)N(C)C)cc3N2CC)SC1=S | 1280
4 | CCN(CC)c1ccc(/C=C(/C#N)c2nc3ccc(C)cc3[nH]2)c(OC(C)C)c1 | 1370
5 | O=C(Cn1cc(C(=O)c2cccs2)c2ccccc21)NCc1cccs1 | 496
6 | Cc1cccn2c(=O)c(/C=C3\SC(=S)NC3=O)c(NCCCN3CCOCC3)nc12 | 1500
7 | COC(=O)c1cc(NC(=O)c2cccc(Cl)c2)c(=O)oc1/C=C/Nc1cc(C)cc(C)c1 | 1230
8 | CCCN1CCCc2cc(CN)ccc21 | 163
9 | O=C(CN(c1cccc(C(F)(F)F)c1)S(=O)(=O)c1ccc(Cl)c([N+](=O)[O-])c1)NCc1ccc(F)cc1 | 318
10 | c1ccc(Cn2c(-c3ccccc3)c[n+]3c2SCCC3)cc1 | 394
11 | S=c1[nH]nc(-c2ccccc2)n1CC1CCCO1 (configuration not stated) | 1220
12 | O=C(N/N=C/C(Br)=C/c1ccccc1)c1n[nH]c2c1CCC2 | 499
13 | COC1=CCC2([N+](=O)[O-])CN(CCO)CC1([N+](=O)[O-])C2 (configuration not stated) | 1320
14 | CC(C)SC1=NC(C)(C)C=C(/C=C/c2ccc(Cl)cc2Cl)N1 | 848
15 | CN(C)c1ccc(C(=O)N/N=C/c2cc(Br)cc(Br)c2O)cc1 | 915
16 | CCNc1ccc2noc3c2c1C(=O)c1ccccc1-3 | 900
17 | Cc1cc(N/N=C/c2ccc([N+](=O)[O-])o2)nc2ccccc12 | 1020
18 | CN1CC=C2C(C#N)=C(N)C(C#N)(C#N)[C@H](c3cccs3)[C@H]2C1 | 772
19 | COc1cc(N2CCCC2)c(OC)cc1/C=C1/NC(=S)NC1=O | 1330
20 | CCN1/C(=C/c2ccc3cc(C)ccc3[n+]2C)Sc2ccc3sccc3c21 | 241
21 | COc1ccc(-n2c(Cc3cccn3C)nnc2SCC(=O)Nc2cccc(C)c2C)cc1 | 1450
22 | COc1ccc(NC(=O)/C(Cl)=C(/Cl)S(=O)Cc2ccccc2Cl)cn1 (configuration not stated) | 476
23 | CN(C)c1ccc(/C=C(/C#N)C(=O)NCc2ccccc2)o1 | 1150

Row | Compound | cell count [cells]
24 | Cc1nn(Cc2cccc(F)c2)c(C)c1NC(=O)c1c(Cl)cnn1C | 294
25 | CC(NC(=O)/C(C#N)=C1\N=C(NC(=O)c2ccco2)c2ccccc21)c1ccccc1 (configuration not stated) | 1100
26 | Cc1ccc(S(=O)(=O)Nc2ccc(=O)n(Cc3ccc(Cl)c(Cl)c3)c2)cc1 | 1440
27 | Cc1ccc(C(c2sc3nc(C)nn3c2O)N2CCN(CCO)CC2)cc1 (configuration not stated) | 465
28 | CC(=O)C1=C(C)Nc2ncnn2C1c1ccc(Cl)cc1Cl (configuration not stated) | 1220
29 | Nc1nc(CSCCO)nc(Nc2ccc(F)cc2)n1 | 498
30 | Cc1ccc(C(=O)C[n+]2cc(-c3ccc(C)cc3)n3c2CCCCC3)cc1 | 213
31 | CCN1CCc2c(sc(NC(=S)NC(=O)c3ccc(Cl)cc3)c2C(N)=O)C1 | 1510
32 | O=C1/C(=C/c2c[nH]c3ccccc23)CCC/C1=C\c1c[nH]c2ccccc12 | 1070
33 | Cc1oc(C)c2c(=O)ccc3c(c12)OC(N)=C(C#N)C3c1ccc(F)cc1 (configuration not stated) | 1040
34 | CCCCn1nc(-c2ccccc2)c2nc3ccccc3nc21 | 1420
35 | CSc1nnc(Cc2cc(=O)[nH]c(=O)[nH]2)n1-c1cccc(C)c1 | 486
36 | COc1ccc(NC(=O)CC2Oc3ccccc3NC2=O)cc1 (configuration not stated) | 445
37 | O=C(O)c1n[nH]c2c1CCCCC2 | 236
38 | Cn1cc(/C=C2\SC(=S)N(NC(=O)c3cccc(Cl)c3)C2=O)c2ccccc21 | 1010
39 | O=c1c2ccccc2c(C=Nc2ccccc2O)c(O)n1-c1nccs1 | 1500
40 | CN(C)c1ccc(/C=C2\N=C(c3ccc(Cl)c([N+](=O)[O-])c3)NC2=O)cc1 | 1380
41 | CCN1C=CC2=C(C#N)C(N)C(C#N)(C#N)C(c3ccccc3C(F)(F)F)C2C1 (configuration not stated) | 625
42 | CC(=O)Nc1ccc(N=Cc2c(O)c(C(=O)Nc3ccccc3)cc3ccccc23)cc1 | 1030
43 | CCC(C)(C)n1nnnc1CN1CCN(C(c2ccccc2)c2ccccc2)CC1 | 417
44 | CCCS(=O)(=O)n1nc(-c2ccccc2)cc1N | 359
45 | CC(=O)NC(c1ccc(Cl)cc1)c1c(O)ccc2ccc(O)cc12 (configuration not stated) | 1500
46 | COc1ccccc1Nc1nc(Cl)c(C=O)s1 | 1110

Row | Compound | cell count [cells]
47 | Cn1c(=O)c2c(nc(NCc3ccco3)n2CCc2ccccc2)n(C)c1=O | 382
48 | Oc1ccc(N=Nc2ccc3c(c2)OCO3)c2ccccc12 | 302
49 | COc1ccc(S(=O)(=O)Nc2cc(Sc3ncn[nH]3)c(O)c3ccccc23)cc1 | 410
50 | CCCNC(=O)Cn1c(=O)/c(=C\c2ccc(-c3ccc([N+](=O)[O-])cc3)o2)s/c1=C\C(=O)C(C)(C)C | 1130
51 | Cc1ccccc1Cn1ccc(=NCc2ccccc2)cc1 | 181
52 | CN1/C(=C\C(=O)CSc2nnc(NCc3ccccc3)s2)C(C)(C)c2ccccc21 | 432
53 | O=C(/C=C/c1cn(CC(O)CN2CCCCCC2)c2ccccc12)c1cccs1 (configuration not stated) | 1120
54 | COc1ccc(CCNC(=O)C2CCN(Cc3nc(-c4ccccc4C)oc3C)CC2)cc1OC | 463
55 | COCCn1c(-c2ccc(OC)cc2)cnc1SCC(=O)Nc1cc(C)on1 | 421
56 | Cc1nc2sccn2c1-c1csc(NCc2ccccc2)n1 | 372
57 | CCN1/C(=C/c2ccc3cc(C)cc(C)c3[n+]2CC)Sc2cc(C)ccc21 | 245
58 | CC1(C)CC(N2CCN(C(c3ccccc3)c3ccccc3)CC2)=CC(=[N+]2CCCCC2)C1 | 191
59 | CNC1=C(N(C(C)=O)c2ccc(Br)cc2)C(=O)c2ccccc2C1=O | 295
60 | N#C/C(=C/c1ccc(N2CCCCC2)o1)c1cccc(F)c1 | 882
61 | COc1ccc2c(C(=O)CN(C)C3CCCCC3)c[nH]c2c1 | 1120
62 | C/C(Cl)=C\Cn1c(NCCc2ccccc2)nc2c1c(=O)n(C)c(=O)n2C | 419
63 | Cc1ccc(CN2CCN(CC(=O)NCCCN3CCN(c4ccc(F)cc4)CC3)C2=O)cc1 | 416
64 | O=C(Nc1cccc(Cl)c1)Nc1nnc(-c2ccncc2)s1 | 390
65 | COc1ccc(NC(=O)c2[nH]c(C)c(C(C)=O)c2C)cc1Cl | 912
66 | COC(=O)c1cc2occc2n1Cc1c(F)cccc1Cl | 1160
67 | CCOc1ccc(-n2c(-c3ccccc3)c[n+]3c2CCCCC3)cc1 | 301
